These results are taken from PMC4336329 (PLoS ONE, 2015).

The whole screen tested about 310,000 compounds, of which about 2,200 (0.71%) showed an effect of 50% or more. Effects have a minus sign here. Some of the results follow.

The target in the assay is human ether-à-go-go-related gene (hERG) potassium channel (human, UniProt Q12809). Briefly: primary screen, population patch clamp on CHO cells stably expressing hERG.
human ether-à-go-go-related gene (hERG) potassium channel, sequence (Q12809 whole entry, looked up): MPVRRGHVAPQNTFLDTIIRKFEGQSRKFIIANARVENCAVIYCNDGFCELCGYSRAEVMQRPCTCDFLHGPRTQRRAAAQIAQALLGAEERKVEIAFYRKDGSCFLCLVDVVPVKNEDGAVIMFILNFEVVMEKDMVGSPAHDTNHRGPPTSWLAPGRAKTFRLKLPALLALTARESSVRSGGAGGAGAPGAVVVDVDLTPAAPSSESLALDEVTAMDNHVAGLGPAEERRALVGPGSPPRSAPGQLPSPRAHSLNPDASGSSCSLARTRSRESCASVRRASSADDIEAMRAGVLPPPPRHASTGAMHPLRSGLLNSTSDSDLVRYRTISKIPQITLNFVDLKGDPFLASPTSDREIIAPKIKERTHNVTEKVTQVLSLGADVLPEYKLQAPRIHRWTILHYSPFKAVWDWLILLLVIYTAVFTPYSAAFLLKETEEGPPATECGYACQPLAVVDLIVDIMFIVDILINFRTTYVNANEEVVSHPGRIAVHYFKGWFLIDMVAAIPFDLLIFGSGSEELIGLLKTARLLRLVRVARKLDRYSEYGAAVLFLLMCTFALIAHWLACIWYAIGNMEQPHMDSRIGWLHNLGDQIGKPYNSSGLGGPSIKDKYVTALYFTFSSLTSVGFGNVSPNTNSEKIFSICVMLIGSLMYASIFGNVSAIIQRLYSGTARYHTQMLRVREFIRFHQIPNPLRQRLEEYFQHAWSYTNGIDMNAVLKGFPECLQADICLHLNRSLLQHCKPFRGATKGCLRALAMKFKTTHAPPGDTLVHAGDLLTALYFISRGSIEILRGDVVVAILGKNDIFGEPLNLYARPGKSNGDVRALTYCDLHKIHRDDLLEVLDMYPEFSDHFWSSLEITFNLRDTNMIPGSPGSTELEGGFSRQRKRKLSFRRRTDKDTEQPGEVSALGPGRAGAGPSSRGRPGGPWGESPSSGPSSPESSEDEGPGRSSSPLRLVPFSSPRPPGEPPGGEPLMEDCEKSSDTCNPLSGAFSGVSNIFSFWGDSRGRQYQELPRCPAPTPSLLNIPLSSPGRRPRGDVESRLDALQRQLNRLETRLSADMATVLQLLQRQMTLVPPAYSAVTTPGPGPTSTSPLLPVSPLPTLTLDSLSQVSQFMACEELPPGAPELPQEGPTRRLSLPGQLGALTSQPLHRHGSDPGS
On to `Cl.Nc1nonc1C(=O)NCCNCc1ccccc1OCc1ccc(F)cc1`, for which the “hERG current change (%, negative = inhibition) at 1uM” value was -9.35%.
Next, `Nc1nonc1-n1nnc(C(=O)N/N=C/c2ccncc2)c1CSc1ccc(Cl)cc1`: 36.7%; `Oc1ccc(N2CCN(Cc3c(-c4ccccc4)nc4ccccn34)CC2)cc1`: -0.183%; `CCNC(=S)N1CCN(S(=O)(=O)/C=C/c2ccccc2)CC1`: 9.37%.
For the compound `O=C(NCC(c1cccs1)N1CCOCC1)c1cccc([N+](=O)[O-])c1` (centres unmarked), the “hERG current change (%, negative = inhibition) at 1uM” value came to 0.76%.
For `COc1ccc(CCC(=O)NNC(=O)Cn2nc(C)cc2C)cc1`, the “hERG current change (%, negative = inhibition) at 1uM” value came out at 10.8%.
On to `COc1nc(C)nc(Cl)c1NC1=NCCN1.Cl`, for which the “hERG current change (%, negative = inhibition) at 1uM” value is listed as 13.8%.
Next, `C[C@@H](C(=O)Nc1nc2ccccc2s1)N1C(=O)C2CC=CCC2C1=O` (some centres unmarked): 10.5%; `CCc1ccccc1NC(=O)CCc1nc(-c2cccs2)no1`: 9.25%; `CC(=O)Nc1ccc(NC(=O)C2CC(=O)N(C(C)C)C2)cc1` (centres unmarked): 13%.
The result for `COc1cc2c(cc1NC(=O)COC(=O)c1ccc(C(C)(C)C)cc1)oc1ccccc12` reads 6.3%; that for `CC1CC(C)(C)CC2(C1)NC(=O)N(CC(=O)N(C)Cc1nc3ccccc3c(=O)[nH]1)C2=O` (centres unmarked), 2.77%.
The result for `Cc1c(C(=O)O)sc2nc(/C=C/c3cccc(O)c3)[nH]c(=O)c12` reads 13.1%; that for `Cc1ccccc1-n1ncc2c1CC(C)(C)CC2NC(=O)c1snnc1C` (centres unmarked), 11.9%; that for `COc1ccc(S(=O)(=O)Cc2ccc(C(=O)N3CCN(c4ncccn4)CC3)o2)cc1`, -5.55%.
Turning to `Cc1ccc(CNC(=O)Cn2cccc2)cc1`, the “hERG current change (%, negative = inhibition) at 1uM” value is given as 14.9%.
Next, `O=C(Nc1cccnc1)c1ccc(C(=O)Nc2cccnc2)cc1`: 11.4%.
Next, `COc1ccc(CNC(=O)c2cccc(S(=O)(=O)N3CCN(C)CC3)c2)cc1`: 27%; `O=C(CSc1cn[nH]n1)Nc1ccccc1C(F)(F)F`: 17.3%; `CCOC(=O)N1CCN(C(=O)Cn2nc(C)n3nc(-c4ccc(CC)cc4)cc3c2=O)CC1`: 15.6%.
The result for `COc1cccc(NC(=O)COC(=O)CCC2CCCC2)c1` reads 4.62%; that for `COc1cccc(NC(=O)C2CC(=O)N(Cc3ccc(C)cc3)C2)c1` (centres unmarked), 3.03%.
With `Cc1nn(CC(=O)Nc2ccc(C#N)cc2)c(C)c1[N+](=O)[O-]`, the “hERG current change (%, negative = inhibition) at 1uM” value is -1.08%.
Next, `Cc1ccc(NC(=O)CN(C)Cc2nc3c(Br)cc(Br)cc3c(=O)[nH]2)cc1`: 12.7%.
Next, `Cc1ccc(C(=O)Nc2ccc(Cl)cn2)cc1S(=O)(=O)N1CCOCC1`: -17.1%; `COc1ccc(-n2cc(CNCCCN3CCCC3=O)c(-c3ccccc3Cl)n2)cc1`: -1.14%; `FC(F)(F)c1cc(-c2ccccc2)nc2ncnn12`: 10.2%.
Next, `CC(=O)CC(=O)Nc1cccc2c1CCCC2`: 8.29%.
In the case of `Nc1c(-c2cccc(Cl)c2)cnn1-c1ccccc1`, the “hERG current change (%, negative = inhibition) at 1uM” value is on record as -0.925%.
The result for `COc1ccccc1N1CCN(C(=O)NC23CC4CC(CC(C4)C2)C3)CC1` reads 14.4%; that for `Cc1ccc(C)c(NC(=O)CN(C)C(=O)COc2cccc3c2OC(C)(C)C3)c1`, 1.57%; that for `CCOc1ccc(OCCC(=O)NNC(=O)c2cc(C)oc2C)cc1`, 9.05%.
Next, `CCOc1ccc(OCCN2CCCCC2)cc1.O=C(O)C(=O)O`: -4.9%.
The result for `CCOc1cc(CC(=O)N[C@@H](CC(C)C)c2ccccc2N2CCCCC2)ccc1C(=O)O` reads 17.3%; that for `COc1ccc(/C(C)=N/Nc2cccc(C(=O)O)c2)cc1OC`, 3.83%.
As to `CC(C)CNC(=O)c1ccccc1N(Cc1ccccc1)S(C)(=O)=O`, the “hERG current change (%, negative = inhibition) at 1uM” value is on record as 10.8%.
Next, `COc1ccc(S(=O)(=O)N2CCCCCC2)cc1C(=O)N(C)CC(=O)Nc1cc(C)ccc1C`: 7.39%; `CC(=O)Nc1nnc(COc2ccccc2)s1`: 5.49%.
With `COC(=O)C1=C(C)N(CCc2cc(OC)c(OC)c(OC)c2)C(=O)N[C@H]1c1cccs1`, the “hERG current change (%, negative = inhibition) at 1uM” value came to 17.8%.
As to `O=C(COC(=O)c1ccc(Cl)c(S(=O)(=O)N2CCN(c3ccc(F)cc3)CC2)c1)Nc1cccc(Cl)c1`, the “hERG current change (%, negative = inhibition) at 1uM” value came out at 14%.
As to `Clc1ccccc1-c1nnc2sc(C3COc4ccccc4O3)nn12` (centres unmarked), the “hERG current change (%, negative = inhibition) at 1uM” value is -4.51%.
Next, `O=C(COc1ccc2ccc(=O)oc2c1)Nc1ccc(N2CCCCC2)cc1`: 5.6%; `Cc1ccccc1Nc1nc(-c2ccccc2)c(C(=O)Nc2cccnc2)s1`: 15.8%.
For the compound `O=C(Nc1ncc(Cc2cccc(C(F)(F)F)c2)s1)c1ccc(-c2cccc([N+](=O)[O-])c2)o1`, the “hERG current change (%, negative = inhibition) at 1uM” value was 4.7%.
As to `CCc1cc(=O)[nH]c(SC/C=C/c2ccccc2)n1`, the “hERG current change (%, negative = inhibition) at 1uM” value is recorded as 3.83%.
For the compound `O=C(CCS(=O)(=O)c1ccc(Br)cc1)NC1CCCCCC1`, the “hERG current change (%, negative = inhibition) at 1uM” value is reported as 12.7%.
As to `Cc1cccc(C(=O)N2CCN(c3ccc(C(F)(F)F)cn3)CC2)c1C`, the “hERG current change (%, negative = inhibition) at 1uM” value is -0.977%.
The result for `COc1ccc(NC(=O)C2CCN(S(=O)(=O)c3ccc(N4CCCC4=O)cc3)CC2)c(OC)c1` reads 17.6%.
The result for `O=[n+]1c2c(n([O-])c3c1CCCC3)CCCCC2` reads 1%.
The result for `CC1CCN(Cc2nnnn2CCCC(=O)NC(c2ccccn2)C(F)(F)F)CC1` (centres unmarked) reads 8.06%; that for `Cc1cc(C(=O)CN2C(=O)NC(CC(C)C)C2=O)c(C)n1-c1ccccc1F` (centres unmarked), 15.3%; that for `C/C(=N\NC(=O)OC(C)(C)C)c1ccccc1Br`, 16.2%.
As for `COc1ccccc1/C=N/NC(=O)CCSc1ccccc1`, the “hERG current change (%, negative = inhibition) at 1uM” value came to 8.57%.
The result for `CC(=O)NN1C(=O)c2ccc3c4c(ccc(c24)C1=O)C(=O)N(NC(C)=O)C3=O` reads 13%; that for `O=C(/C=C/c1ccco1)OCn1nnc2ccccc2c1=O`, 2.97%; that for `CC1CCc2c(C(=O)Nc3ccc(N4CCOCC4)cc3)csc2C1` (centres unmarked), 4.71%.
Next, `Cc1cc(C)cc(NC(=O)CN2C(=O)NC(C)(c3ccccc3)C2=O)c1` (centres unmarked): 14.8%; `O=C(O)c1ccc(NC2=C(Cl)C(=O)c3ccccc3C2=O)cc1`: 15.5%.
The result for `Cc1ccc(NC(=O)COC(=O)Cc2ccsc2)cc1S(=O)(=O)N1CCOCC1` reads 1.52%; that for `CC(C)(C)C(=O)OCOC(=O)[C@@H]1N2C(=O)[C@@H](N=CN3CCCCCC3)[C@H]2SC1(C)C.Cl`, 2.68%.
`Cc1ccc(-c2cc3nc4c(c(=O)n3[nH]2)CCCC4)cc1`: the “hERG current change (%, negative = inhibition) at 1uM” value amounted to 14.7%.
The result for `Cc1cc([N+](=O)[O-])ccc1N(C)C` reads 13.5%.
The result for `Cn1cnc(S(=O)(=O)Nc2ccc(OC(F)(F)F)cc2)c1` reads 11.7%; that for `CCSC1=C(C#N)C(c2cccc(OC)c2)CC(=O)N1` (centres unmarked), 6.87%; that for `O=C(CC1C(=O)NCCN1Cc1cccc(F)c1)NCCCCCN1CCOCC1` (centres unmarked), 9.28%.
The result for `O=C(O)C(=O)O.O=C1CC(Cc2ccccc2)C(=O)N1CCCn1ccnc1` (centres unmarked) reads -2.04%; that for `Brc1cccc(-c2nnc3sc(CN4CCCCC4)cn23)c1`, 6.51%; that for `COC(=O)c1cc(NC(=O)COC(=O)C2CCC2)cc(C(=O)OC)c1`, 12.5%.
On to `O=C(Nc1nc2ccccc2s1)NC1CCCCC1`, for which the “hERG current change (%, negative = inhibition) at 1uM” value came to 8.46%.
The result for `Cc1c(Cl)cccc1N/C(=N/S(=O)(=O)c1cccs1)c1ccccc1` reads 12.6%; that for `COc1ccc(Br)cc1CN1CCCC(C(=O)N2CCCCCC2)C1.O=C(O)C(=O)O` (centres unmarked), -22.1%; that for `CCOc1ccc(C(=O)Nc2c(C(=O)N3CCC(N4CCCCC4)CC3)oc3ccccc23)cc1`, -82%.
The result for `CC(C)CNS(=O)(=O)c1ccc(S(=O)(=O)N2CCC(N3CCCCC3)CC2)cc1` reads 9.1%; that for `O=C(NCCCN1CCOCC1)c1cc2c(s1)-c1ccccc1OC2`, -0.494%; that for `COc1ccc(-c2ccc(S(=O)(=O)n3nc(OC(=O)c4cccs4)cc3N)cc2)cc1`, 8.64%.
The result for `CC(=O)c1ccc(NC(=S)Nc2cccc(S(=O)(=O)Nc3c(C)n(C)n(-c4ccccc4)c3=O)c2)cc1` reads 11.4%.
For `COc1ccc(N(C)C(=O)CCS(=O)(=O)c2cccc3nsnc23)cc1`, the “hERG current change (%, negative = inhibition) at 1uM” value worked out at 7.73%.
Next, `N#CC1=C(SCC(=O)Nc2cccc3cccnc23)NC(=O)C(C#N)C12CCCCC2` (centres unmarked): -18.4%; `O=S(=O)(O)c1ccc(N=NNc2ccc(Br)cc2)cc1`: 14.9%.
The result for `CCOc1ccc(NC(=O)C(=O)NCCN2CCN(C(=O)c3ccc(C)cc3)CC2)cc1` reads -65.5%.
Take `Cc1ccc(N(O)C(=O)NCCCCNC(=O)N(O)c2ccc(C)cc2)cc1`: the “hERG current change (%, negative = inhibition) at 1uM” value is 12.2%.
In the case of `CCOC(=O)c1[nH]c2ccccc2c1NC(=O)NC1CCCCC1`, the “hERG current change (%, negative = inhibition) at 1uM” value is recorded as 5.94%.
Next, `COC(=O)c1c(-c2ccsc2)oc2ccc(-c3cc(OC)c(OC)c(OC)c3)cc12`: 14.6%; `COC(=O)c1cn(NC(=O)Cc2ccccc2OC)c(=O)c2ccccc12`: 16.1%.
Next, `Cc1oc(-c2ccccc2Cl)nc1CS(=O)CC(=O)NCc1ccc2c(c1)OCO2` (centres unmarked): 3.74%; `O=C(Cc1ccccc1)NC(C(=O)O)C(O)c1ccc([N+](=O)[O-])cc1` (centres unmarked): 13.8%.
